Reference: PubChem BioAssay AID488969 (Vanderbilt High Throughput Screening Facility, 2010)
Over roughly 110,000 compounds, “z-score” has its median near -0.1; the highest 2% begin near 2. Some of the results follow. Active and inactive are the calls of the source.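 Rule for the calls: active = z-score in the third read window above 3 or below -3; inactive = the rest.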

Target: Metabotropic glutamate receptor 8 (Rattus norvegicus) (UniProt P70579)
Test: mGluR8 Gi/Go-coupled signaling modulation – cell-based, rat, thallium flux, HTS, primary screen (AID 488969)
Conditions: HEK293 rat mGluR8, GIRK (G protein-gated inwardly rectifying potassium channel) thallium flux, FluoZin2; at 10 µM; stronger effect = higher value; submaximal glutamate (EC20) added with thallium

Sequence of UniProt P70579 (P70579 whole entry, looked up): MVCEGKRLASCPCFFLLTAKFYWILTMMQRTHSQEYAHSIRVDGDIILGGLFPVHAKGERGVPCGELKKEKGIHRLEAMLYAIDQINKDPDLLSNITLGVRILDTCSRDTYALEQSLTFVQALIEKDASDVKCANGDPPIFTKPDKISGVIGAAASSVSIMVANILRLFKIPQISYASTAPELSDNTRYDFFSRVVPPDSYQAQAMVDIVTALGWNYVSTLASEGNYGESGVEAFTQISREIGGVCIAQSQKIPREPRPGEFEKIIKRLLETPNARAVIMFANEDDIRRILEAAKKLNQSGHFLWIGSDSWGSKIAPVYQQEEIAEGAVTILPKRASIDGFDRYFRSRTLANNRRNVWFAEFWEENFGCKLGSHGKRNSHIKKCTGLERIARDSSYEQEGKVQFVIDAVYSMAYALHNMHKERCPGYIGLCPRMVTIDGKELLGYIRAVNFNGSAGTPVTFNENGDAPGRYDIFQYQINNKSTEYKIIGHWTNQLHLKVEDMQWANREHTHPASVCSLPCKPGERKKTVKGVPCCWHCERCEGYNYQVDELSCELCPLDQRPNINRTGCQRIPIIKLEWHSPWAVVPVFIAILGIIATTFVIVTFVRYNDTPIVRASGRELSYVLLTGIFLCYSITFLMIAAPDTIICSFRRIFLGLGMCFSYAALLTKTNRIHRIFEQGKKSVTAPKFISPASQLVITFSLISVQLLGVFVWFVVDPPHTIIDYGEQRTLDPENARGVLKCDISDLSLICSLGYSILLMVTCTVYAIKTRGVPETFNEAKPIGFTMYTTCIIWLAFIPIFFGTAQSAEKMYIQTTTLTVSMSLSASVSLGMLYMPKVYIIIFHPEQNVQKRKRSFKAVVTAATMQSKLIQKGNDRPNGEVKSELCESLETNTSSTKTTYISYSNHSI

SMILES | z-score
O=C1c2ccccc2C(=O)c2c1ccc1c(=O)n(C3CCCCC3)[nH]c21 | -0.0596
COc1ccc(NC(=O)/C(C#N)=C\C=C\c2ccco2)cc1 | 0.388
CON1C(=O)C(=O)N(OC)C(C)(C)C1C (stereo not drawn) | 0.138
CCC(C)N1CC23C=CC(O2)C(C(=O)OCc2ccccc2)C3C1=O (stereo not drawn) | 0.179
CCOc1nc(-c2ccc(OC)cc2)ccc1-c1noc(-c2cccnc2)n1 | -0.336
O=C(Cn1nnc2ccccc2c1=O)NC1CCCc2ccccc21 (stereo not drawn) | 0.15
COc1ccc(-c2cc(C(F)F)n3ncc(C(=O)N4CCN5CCCC5C4)c3n2)cc1 (stereo not drawn) | -0.466
Cc1cc(C)c2c(=O)[nH]c(SCC(=O)c3ccc(C(C)C)cc3)nc2n1 | 0.152
CCCNC(=O)c1n[nH]c(=O)c2ccccc12 | -0.0463
Cc1ccccc1N1C(=O)CN(Cc2sccc2C)C1=S | -0.181
CCOc1ccc(C2CC(c3ccc(Br)cc3)Nc3nc(N)nn32)cc1 (stereo not drawn) | 0.375
Cc1cc(N2CCOCC2)nc2ccccc12 | -0.0968
CNC(=O)c1c(C)nc(SCC(=O)NCc2ccc(OC)cc2)c(C#N)c1-c1ccco1 | 0.161
COc1ccc(S(=O)(=O)Nc2ccc3c(c2)OCO3)cc1OC | 0.772
COc1cc2ncnc(NCc3ccc(C)cc3)c2cc1OC | -0.387
COc1ccc(/C=C/C(=O)c2ccc(C)c([N+](=O)[O-])c2)cc1O | -0.153
O=c1[nH][nH]c(C(F)(F)F)c1C=Nc1cccc(Cl)c1 | 0.34
Cc1ccc(N2CC(C(=O)N/N=C/c3sccc3C)CC2=O)cc1 (stereo not drawn) | active: 3.3
CC(=O)C1=C(O)C(=O)N(c2ccc(S(N)(=O)=O)cc2)C1c1ccc([N+](=O)[O-])cc1 (stereo not drawn) | 0.114
CCOC(=O)N1CCC(NC(=O)c2ccc(CNS(=O)(=O)c3ccc(F)cc3)cc2)CC1 | -0.118
COc1ccc(-c2cc(-c3ccc(OC)cc3)nc(-c3ccc4c(c3)NC(=O)CO4)c2)cc1 | -0.0143
Cc1ccc(-c2cn3cccnc3n2)cc1NC(=O)c1cccs1 | -0.382
COc1ccccc1CN(Cc1nc2ccccc2c(=O)[nH]1)S(=O)(=O)c1ccc(C)cc1 | -0.428

SMILES | z-score
CC(C)(C#N)N([O-])C=C[N+](=O)C(C)(C)C#N | 0.168
C=C(C)COc1ccc2c3c(c(=O)oc2c1OCC(=C)C)CCC3 | 0.75
O=C(Nc1cccc2ccccc12)c1cn(-c2ccccc2)nc1-c1cccs1 | -0.518
Cc1ccccc1OCc1nnc(SCC(=O)N2c3ccccc3Sc3ccc(Cl)cc32)o1 | -0.448
O=C1c2ccccc2S(=O)(=O)N1Cc1nnc(-c2ccccc2Br)o1 | -2.58
Cc1cc(C)c(C#N)c(Cl)n1 | -0.381
CCN(CC)CCNC(=O)c1ccccc1N | -0.11
COc1ccc2c(c1)C(=O)N(c1ccccc1OC)C(=O)C2 | 0.316
Cc1c(NC(=O)c2nn3c(C(F)(F)F)cc(-c4ccccc4)nc3c2Cl)c(=O)n(-c2ccccc2)n1C | -0.0759
Cc1c(/C(Cc2ccccc2)=N/O)c2ccccc2n1C | -0.391
N=C1S/C(=C\c2ccccc2F)C(=O)N1c1ccc(F)cc1 | -0.0449
CCC1=Nc2cc(C(=O)NCc3ccco3)ccc2Sc2ccccc21 | -0.837
Cc1ccc(/C=N/NC(=O)CSc2nc3ccccc3n2Cc2ccccc2)o1 | -0.347
CCOC(=O)NC(c1ccccc1)C1CCCCC1=O (stereo not drawn) | -0.571
CCCOc1ccc(CC(=O)NCc2ccco2)cc1OC | 0.0321
Cc1sc2nc(COC(=O)C(NC(=O)c3ccc(Cl)cc3Cl)C(C)C)[nH]c(=O)c2c1C (stereo not drawn) | -0.106
Cn1c(SCC2CCCO2)nnc1-c1ccncc1 (stereo not drawn) | 0.0461
CC(C)(C)c1ccc(/C=N/NC(=S)NCc2ccccc2)cc1 | 0.0573
COc1ccc(C(=O)NNC(=O)CCC(=O)Nc2cc(C)on2)cc1 | -0.0863
CC(=O)Nc1cccc2c1C(=O)N(c1ccc(C)cc1)C2=O | 0.845
O=C(CSc1ncnc2sc3c(c12)CCCCC3)NCc1ccco1 | 1.08
O=C(Nc1nc(SCc2ccc(F)cc2)ns1)c1ccco1 | -0.506
O=C(OCCCN1CCCC1)C1(c2ccccc2)CCCC1 | 0.0806

SMILES | z-score
CCn1cc(S(=O)(=O)CC(=O)Nc2ccc3c(c2)OCCO3)c2ccccc21 | -0.274
O=C(Cc1ccccc1)n1nc(-c2ccccc2)nc1NCc1ccco1 | -0.16
Cc1ccc(C(=O)NNC(=S)NC(=O)COc2ccccc2)cc1 | active: 6.25
Cc1cc(NC(=O)c2c(F)cccc2Cl)n(-c2nc3ccccc3[nH]2)n1 | active: 3.06
O=S(=O)(c1ccc2oc3ccc(S(=O)(=O)N4CCCC4)cc3c2c1)N1CCCC1 | 0.586
Cc1nc2ccccc2nc(C)c1=NO | 0.278
CCOC(=O)C1=C(CNCc2ccc(C)cc2)NC(=O)NC1c1ccc(OC)cc1 (stereo not drawn) | -0.397
O=C(CSc1nnc2c3cc(F)ccc3nc(-c3ccccc3)n12)N1CCOCC1 | 0.0643
CCN1C(=O)C2(C(C#N)=C(N)Oc3n[nH]c(COC)c32)c2ccccc21 (stereo not drawn) | -0.00725
CCN(CC)C(=O)/C(NC(=O)c1ccccc1)=C(/Sc1ncccn1)c1ccccc1 | -0.112
Cc1ccc(Cl)c2c1NC(=O)C2(O)CC(=O)c1ccc(F)cc1 (stereo not drawn) | -0.203
Cc1nn(-c2ccccc2)c2sc(C(=O)OCc3nnc(-c4ccccc4)o3)cc12 | -0.124
Cc1nc(OCC(=O)c2ccc(Cl)cc2)c(C#N)c2c1COC(C)(C)C2 | 0.572
Cc1ccc(C(=O)/C=C/c2ccc(Br)cc2)o1 | -0.27
CC(=O)NC12CC3CC(C1)CC(C(=O)OCC(=O)Nc1ncc(Cl)cc1Cl)(C3)C2 | 0.854
CCOC(=O)C1C(=O)NC(N2CCN(c3ccccc3)CC2)=NC1c1ccccc1 (stereo not drawn) | -0.388
CC1C/C(=N/Nc2ccc([N+](=O)[O-])cc2[N+](=O)[O-])CC(C)(C)C1 (stereo not drawn) | -0.416
Cc1cc2c3c(c1)C(C)(c1ccccc1)CC(C)(C)N3C(=O)C21C(C#N)=C(N)OC2=C1C(=O)CC(C)(C)C2 (stereo not drawn) | 0.022
Cn1nc([N+](=O)[O-])nc1Sc1nnc(-c2ccccc2)o1 | -0.0165
NC(=O)CN1CCOCCOCCOCCOCCOCC1 | 0.482
COc1ccc(/C=C\c2onc(C)c2S(=O)(=O)N2CCC(C(=O)NCCC(C)C)CC2)cc1 | 0.851
COc1ccccc1/C=C/C(=O)OCC(=O)Nc1cc(C(F)(F)F)ccc1N1CCOCC1 | -0.341
